In patent US9803019B2, “Carrier immunoglobulins and uses thereof” (Amgen Inc., priority 2010, dated 2017):

Tests used:
[1] = Light sensitivity: 3 days fluorescent light vs dark, SEC / HIC analysis; type: physicochemical; details: 3 days at room temperature, ambient fluorescent light vs aluminum foil
Protocol: Samples were eluted at 0.8 ml/min with a 0-100% linear gradient over 50 minutes observing the absorbance at 220 nm.
To measure the light sensitivity of the antibodies, they were incubated in ambient lab fluorescent lighting or covered in aluminum foil for 3 days at room temperature. Light exposed and dark control antibodies were then analyzed using two size exclusion columns (TSK-GEL G3000SWXL, 5 mm particle size, 7.8×300 mm, TosohBioscience, 08541) in series with a 100 mM sodium phosphate, 250 mM NaCl, pH 6.8, mobile phase flowed at 0.5 mL/min. […] The antibodies were then analyzed by hydrophobic interaction chromatography (HIC) using two Dionex ProPac HIC-10 columns in series with mobile phase A being 1 M ammonium sulfate, 20 mM sodium acetate, pH 5.0 and mobile phase B being 20 mM sodium acetate, 5% acetonitrile, pH 5.0. Samples were eluted at 0.8 ml/min with a 0-100% linear gradient over 50 minutes observing the absorbance at 220 nm.
To measure the light sensitivity of the antibodies, they were incubated in ambient lab fluorescent lighting or covered in aluminum foil for 3 days at room temperature. The antibodies were then analyzed by hydrophobic interaction chromatography using two Dionex ProPac HIC-10 columns in series with mobile phase A being 1 M ammonium sulfate, 20 mM sodium acetate, pH 5.0 and mobile phase B being 20 mM sodium acetate, 5% acetonitrile, pH 5.0. […]

[2] = system: Colo205 cells; experiment: Colo205 cell based caspase-3/7 apoptosis assay; design: species or system human; details: Colo205, relative luminescence (FIG. 20C)
Protocol: Samples of antibodies 4241 and 4341 were compared with positive control IgG1 anti-TR2 mAb 16449. The prepared antibody samples were added to TRAIL-sensitive human ascites colorectal adenocarcinoma cell line Colo205. The detection of TRAIL-mediated caspase-3 activation by measuring an increase in relative luminescence was used as a positive marker for apoptosis.
Colo205 is a human colon carcinoma cell line that is sensitive to the presence of TRAIL. […] A Colo205 based cell assay was developed to verify the cell killing efficacy of antibodies. The in vitro biological activity of the Antibody 16449 (anti-TRAIL-R2 antibody) is analyzed by its ability to induce apoptosis in human ascites colorectal adenocarcinoma cell line Colo205. The detection of caspase-3 activation is used as a positive marker for apoptosis, using the Apo-One™ Homogeneous Caspase™-3/7 assay kit (PromegaCorporation, Madison, Wis.), according to the manufacturer's instruction. (see, Niles et al., The Apo-One™. Homogeneous Caspase™-3/7 assay: a simplified “solution” for apoptosis detection, Cell Notes 2:2-3 (2001)). […] Luminescence produced is proportional to the amount of caspase activity present. The luminescence of each sample is measured in a plate-reading luminometer. Biological activity of the test sample is determined by comparing test sample response to Reference Standard response. […]

[3] = Thermoresistance by DSC (MicroCal VP-DSC); type: physicochemical; details: 0.5 mg/ml in 10 mM sodium acetate, 9% sucrose, pH 5.0; 20° C. to 95° C. at 1° C. per minute
Protocol: The protein concentration was 0.5 mg/ml in 10 mM sodium acetate, 9% sucrose, pH 5.0.
Antibodies were also analyzed for thermoresistance by DSC using a MicroCal VP-DSC where the samples were heated from 20° C. to 95° C. at a rate of 1° C. per minute. DSC directly measures heat changes that occur in biomolecules during controlled increase or decrease in temperature, making it possible to study materials in their native state.
DSC measures the enthalpy (ΔH) of unfolding due to heat denaturation. A biomolecule in solution is in equilibrium between the native (folded) conformation and its denatured (unfolded) state. […] DSC is also used to determine the change in heat capacity (ΔCp) of denaturation (see, FIG. 11). The proteins were incubated at 0.5 mg/ml in 10 mM sodium acetate, 9% sucrose, pH 5.0 (FIG. 11).
The antibodies were analyzed for thermoresistance by DSC using a MicroCal VP-DSC where the samples were heated from 20° C. to 95° C. at a rate of 1° C. per minute. The proteins were at 0.5 mg/ml in 10 mM sodium acetate, 9% sucrose, pH 5.0 (FIG. 28).

[4] = Rat PK, single SC dose (Example 4); type: in vivo, Sprague-Dawley rats; details: 5 mg/kg subcutaneously
Protocol: Serum concentrations were then determined using an anti-human Fc based ELISA.
The pharmacokinetic profile of the 16435, 16444, 4241, and 4341 carrier antibodies was determined in adult Sprague-Dawley rats (8-12 weeks old) by injecting 5 mg/kg subcutaneously and collecting approximately 250 μL of blood in Microtainer® serum separator tubes at 0, 0.25, 1, 4, 24, 48, 72, 96, 168, 336, 504, 672, 840 and 1008 hours post-dose from the lateral tail vein. Each sample was maintained at room temperature following collection, and following a 30-40 minute clotting period, samples were centrifuged at 2-8° C. at 11,500 rpm for about 10 minutes using a calibrated Eppendorf 5417R Centrifuge System (Brinkmann Instruments, Inc., Westbury, N.Y.). The collected serum was then transferred into a pre-labeled (for each rat), cryogenic storage tube and stored at −60° C. to −80° C. for future analysis. To measure the serum sample concentrations from the PK study samples, the following method was used: ½ area black plate (Corning 3694) was coated with 2 μg/ml of anti-hu Fc, antibody 1.35.1 in PBS and then incubated overnight at 4° C. The plate was then washed and blocked with I-Block™ (Applied Biosystems) overnight at 4° C. […] The plate was washed, then 50 μl of Pico substrate were added, after which the plate was immediately analyzed with a luminometer.

B1: 4241 (antibody)
heavy: QVQLQESGPGLVKPSQTLSLTCTVSGGSISSGDYFWSWIRQLPGKGLEWIGHIHNSGTTYYNPSLKSRVTISVDTSKKQFSLRLSSVTAADTAVYYCARDRGGDYEYGMDVWGQGTTVTVSSASTKGPSVFPLAPSSKSTSGGTAALGCLVKDYFPEPVTVSWNSGALTSGVHTFPAVLQSSGLYSLSSVVTVPSSSLGTQTYICNVNHKPSNTKVDKRV[here human IgG1 Fc without letters]
light: EIVLTQSPGTLSLSPGERATLSCRASQGISRSALAWYQQKPGQAPSLLIYGASSRATGIPDRFSGSGSGTDFTLTISRLEPEDFAVYYCQQFGSSPWTFGQGTKVEIKRTVAAPSVFIFPPSDEQLKSGTASVVCLLNNFYPREAKVQWKVDNALQSGNSQESVTEQDSKDSTYSLSSTLTLSKADYEKHKVYACEVTHQGLSSPVTKSFNRGEC
light sensitivity (HIC chromatograms with and without light exposure) [1]: neither antibody displayed significant differences
caspase-3 activation [2]: failed to activate caspase-3
DSC melting profile [3]: most desirable melting profile, with a higher temperature for the secondary transition
AUC0-t±SD [4]: 24,045±2,480 μg/h/mL
